# According to the RNAGym collection of RNA variant scans (doi:10.1073/pnas.2313332121):
# Variants at the floor of the assay are shown more often than the library holds them.
# B1: TPR 5TU (parent)
# chain: GGAUCUUCUCGAUCUAACAAAAAAGACAAAUCUGCCACAAAGCUUGAGAGCAUCUUCGGAUGCAGAGGCGGCAGCCUUCGGUGGCGCGAUAGCGCCAACGUUCUCAACUAUGACACGCAAAACGCGUGCUCCGUUGAAUGGAGUUUAUCAUG
# Variants of: B1
# Test: polymerase ribozyme fitness, log enrichment relative to wild type (log ratio); higher = more active; in vitro selection for triplet polymerase activity
# Procedure, shortened: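 A single round of triplicate in vitro selection, including frozen incubation at −7 °C, was applied to PCR-built, transcribed mutant libraries of each subunit of a heterodimeric triplet polymerase ribozyme. Illumina sequencing of input and output libraries retained genotypes with ≥10 input reads and ≥1 read per output. Fitness is the base-2 logarithm of genotype enrichment divided by wild-type enrichment, from inverse-variance-weighted replicate averages.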
row,Variant,polymerase ribozyme fitness (log ratio)
1,GGAUCCUCUCGAUCUAACAAAAUAGACAAAUCUGCCACAAAGCUUGAGAGCAUCUUAGGAUGCAGAGGCGGUAGGCUUCGGUGGCGCGAUAGCCCCAACGUUCUCAACUAUGACACGCAAAACGCGUGCUCCGUUGAAUGGAGUUUAUCAUG [U6C A23U C57A C72U C75G G94C],≤ -4.2
2,GGAUCCUCUCGAUCUAACAAAAUACACAAAUCUGCCACAAAGCUUGAGAGCAUCUUCGGAUGCAGAGGCGGCAGCCUUCGGUGGCGCGAUGGCGCCAACGUUCUCAACUAUGACACGCAAAACGCGUGCUCCGUUGAAUGGAGUUUAUCAUG [U6C A23U G25C A91G],≤ -4.2
3,GGAUCCUCUCGAUCUAACAAAAAUGACAAAUCUGCCACAAAGCUUGAGAGCAUAUUCGGAUGCGGAGGCGGCAGCCAUCGGUGGCGCGAGAUCGCCAACGUUCUCAACUAUGACACGCAAAACGCGUGCUCCGUUGAAUGGAGUUUAUCAUG [U6C A24U C54A A64G U77A U90G G92U],≤ -4.2
4,GGAUCCUCUCGAUCUAACAAAAAAGCCGAAUCUGCCACAAAGCUUGAGAGCAUCUUCGGAUGCAGAGGCGGCAGCCUUCGGUGGCGCGAUAGCGCCAACGUUCUCAACUAUGACACGCAAAACGCGUGCUCCGUUGAAUGGAGUUUAUCAUG [U6C A26C A28G],-3.84
5,GGAUCCUCUCGAUCUAACAAAAAAGUCAAAUCUGCCACAAAGCUUGAGAGCUUCUUCGGAUGCAGAGGCGGCAGCCUUCGGUGUCGCGAUAGCGCCAACGUUCUCAACUAUGACACGCAAAACGCGUGCUCCGUUGAAUGGAGUUUAUCAUG [U6C A26U A52U G84U],≤ -4.2
6,GGAUCCUCUCGAUCUAACAAAAAAGACACAUCUGCCACAAAGCUUGAGAGAAUCUUCGGAUGCAGAGGCGGCAGCCUUCGGUGGCGCGAUAGCGGCAACGUUCUCAACUAUGACACGCAAAACGCGUGCUCCGUUGAAUGGAGUUUAGCAUG [U6C A29C C51A C95G U148G],≤ -4.2
7,GGAUCCUCUCGAUCUAACAAAAAAGACAUAUCUGCCACAAAGCUUGAGAGCAUCUUCGGAUGCAGAGGCGGCAGCCUUCGGUGGAGCGAGAGCGUCAACGUUCUCAACUAUGACACGCAAAACGCGUGCUCCGUUGAAUGGAGUUUAUCAUG [U6C A29U C85A U90G C95U],≤ -4.2
8,GGAUCCUCUCGAUCUAACAAAAAAGACAAGUCUGCCACAAAGAUUGAGAGCAUCUUCGGAUGCAGAGGCGGCAGCCUUCGGUAGCGCGAUAGCGCGAACGUUCUCAACUAUGACACGCAAAACGCGUGCUCCGUUGAAUGGAGUUUAUCAUG [U6C A30G C43A G83A C96G],≤ -4.2
9,GGAUCCUCUCGAUCUAACAAAAAAGACAAUUCUGCCACAAAGCUUGAGAGCAUCAUCGGAUGCAGAGGCGGCAGCCUUCGGUGGCGCGAUAGCGCCAACGUUCUCAACUAUGACACGCAAAACGCGUGCUCCGUUGAAUGGAGUUUAUCAUG [U6C A30U U55A],≤ -4.2
10,GGAUCCUCUCGAUCUAACAAAAAAGACAAAUCUGCCACUAAGCUUGAGAGCAUCUUCGGAUGCAGAGGCGGAAGCCUUCGGCGUCGCGAUAGCGCCAACGUUCUCAACUAUGACACGCAAAACGCGUGCUCCGUUGAAUGGAGGUUAUCAUG [U6C A39U C72A U82C G84U U144G],≤ -4.2
11,GGAUCCUCUCGAUCUAACAAAAAAGACAAAUCUGCCACAACGCUUGAGAGCAUCUUCGGAUGCAGAGGCGGCAGCCUUGGGUGGCGCGAUAGCGCCAACGUUCUCAACUAUGACACGCAAAACGCGUGCUCCGUUGAAUGGAGUUUAUCAUG [U6C A41C C79G],≤ -4.2
12,GGAUCCUCUCGAUCUAACAAAAAAGACAAAUCUGCCACAAGGCUUGAGAGCAUCUGCGAAGGCAGAGGCGGCAGCAUUCGGUGGCGCGAUCGCGGCAACGUUCUCAACUAUGACACGCAAAACACGUGCUCCGUUGAAUGGAGUUUAUCAUG [U6C A41G U56G G59A U61G C76A A91C C95G G124A],≤ -4.2
13,GGAUCCUCUCGAUCUAACAAAAAAGACAAAUCUGCCACAAAGCUUGCGAGCAUCUUCGGAUGCAGAGGCGGCAGCCUUCGGUGGAGCGAUAGCGCCAACGUUCUCAACUAUGACACGCAAAACGCGUGCUCCGUUGAAUGGAGUUUAUCAUG [U6C A47C C85A],-3.96
14,GGAUCCUCUCGAUCUAACAAAAAAGACAAAUCUGCCACAAAGCUUGAGCGCAAUUUCGGAUGCAGAGGCGGCAGCCUUCGGUGGCGUGAUAGCGCCAACGUUCUCAACUAUGACACGCAAAACGCGUGCUCCGUUGAAUGGAGUUUAGCAUG [U6C A49C U53A C54U C87U U148G],≤ -4.2
15,GGAUCCUCUCGAUCUAACAAAAAAGACAAAUCUGCCACAAAGCUUGAGGGCAUCUUCGGAUGCAGAGGCGGCAGCCUUCGGUGGCGGGAUAGCGCUAACGUUCUCAACUAUGACACUAAAAACGCGUGCUCCGUUGAAUGGAGUUUAUCAUG [U6C A49G C87G C96U G117U C118A],≤ -4.2
16,GGAUCCUCUCGAUCUAACAAAAAAGACAAAUCUGCCACAAAGCUUGAGAGCCUCAUCGGAUGCAGAGGCGGCAGCCUUCGGUAGCGCGAUAGCGCCAACGUUCUCAACUAUGACACGCAAAACGCGUGCGCCGUUGAAUGGAGUUUAUCAUG [U6C A52C U55A G83A U130G],≤ -4.2
17,GGAUCCUCUCGAUCUAACAAAAAAGACAAAUCUGCCACAAAGCUUGAGAGCAUCUUCGGAUGCAGAGGCGGCAGCCUUCGGUGGCGCGGUAGCGCUAACGUUCUCAACUAUGACACGCAAAACGCGUGCUCCGUCGAAUUGAGUUUAUCAUG [U6C A89G C96U U135C G140U],≤ -4.2
18,GGAUCCUGUCGAGCUAACAAAAAAGACAUAACUGCCACAAAGCUUGAGAGCAUCUUCGGAUGCAGAGGCGGCACCCUUCGGUGGCGCGAUAGCGCCAACGUUCUCAACUAUGACACGCAAAACGCGUGCUCCGUUGAAUGGAGUUAAGCAGG [U6C C8G U13G A29U U31A G74C U146A U148G U151G],≤ -4.2
19,GGAUCCUUUCGAUCUAUCAAAAAAGACAAAUCUGCCACGAAGCUUGAGAGCAUCUUCGGAUGCAGAGGCGGCAGCCUUCGGUAGCGCGAUAGCGCCAACGAUCUCAACUAUGACACGCAAAACGCGUGCUCCGUUGAAUGGAGUUUAUCAUG [U6C C8U A17U A39G G83A U101A],≤ -4.2
